The text below walks through data of PubChem BioAssay AID485344 (National Center for Advancing Translational Sciences (NCATS), 2010).

Out of some 340,000 compounds screened, about 6,900 (2%) were called active. Rule as the data show it: active = inhibition above about 30%; inactive = below that, where a call was filed. This is a selection; strong and weak results do not stand in their true shares. Where no call is shown, the source filed none.

Sequence of UniProt P14416 (P14416 whole entry, looked up): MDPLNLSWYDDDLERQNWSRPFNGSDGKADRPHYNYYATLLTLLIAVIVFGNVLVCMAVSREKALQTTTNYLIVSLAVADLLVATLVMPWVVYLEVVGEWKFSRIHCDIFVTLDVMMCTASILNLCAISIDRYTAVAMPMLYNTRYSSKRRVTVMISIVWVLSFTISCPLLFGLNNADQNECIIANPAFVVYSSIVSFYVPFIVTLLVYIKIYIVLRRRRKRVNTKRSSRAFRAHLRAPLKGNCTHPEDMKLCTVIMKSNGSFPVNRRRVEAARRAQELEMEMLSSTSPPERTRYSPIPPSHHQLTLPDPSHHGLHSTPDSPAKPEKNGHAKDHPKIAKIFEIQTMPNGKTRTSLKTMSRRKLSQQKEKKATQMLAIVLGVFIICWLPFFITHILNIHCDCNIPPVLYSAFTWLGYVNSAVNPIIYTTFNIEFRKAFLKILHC

For this assay, the target named is D(2) dopamine receptor (Homo sapiens) (UniProt P14416). Nature of the assay: HTS Assay for Allosteric Antagonists of the Human D2 Dopamine Receptor: Primary Screen for Antagonists. Also: 0% is about no effect. The note with it: HEK293 TREx D2 cells, calcium flux, dopamine EC80; at 10 µM; stronger effect = higher value. The gist of the method:
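Inhibition of EC80 dopamine-driven calcium flux, recorded kinetically, defines activity here; cells are a tetracycline-induced HEK293 T-REx line expressing force-coupled D2.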
For orientation: Calcium assays in cells follow changes in intracellular calcium, usually with a dye or a luminescent sensor.
As a reminder, the inhibition is the relative decrease from the control value, in per cent. For the compound `Cc1ccc(CSCC(=O)NCc2ccc(F)cc2)cc1`, the inhibition is -6.61%.

On to `COc1ccc(-c2noc(-c3ccc(NCc4ccco4)c([N+](=O)[O-])c3)n2)cc1`, for which the inhibition is -9.18%.

On to `CCOC(=O)c1cccc(NC(=O)CCc2c(C)nc3cc(-c4ccc(Cl)cc4)nn3c2C)c1`, for which the inhibition amounted to 3.26%.

As to `O=C(CCCn1c(=O)c2cccn2c2ccc(F)cc21)NCCc1ccccc1`, the inhibition came out at 2.21%.

Regarding `Cc1ccc(Cl)cc1NC(=O)Nc1c(C)n(C)n(-c2ccccc2)c1=O`, the inhibition was -3.42%.

For the compound `CCOC(=O)CSc1nc2ccc(NC(=O)c3ccc(F)cc3)cc2s1`, the inhibition was determined as 17.2%.

Regarding `CCc1ccc(Oc2nc3c(C)cccn3c(=O)c2/C=C(\C#N)c2nc3ccccc3[nH]2)cc1`, the inhibition was -3.95%.

As for `COc1ccc(NC(=O)c2sc3nc4c(cc3c2N)CN(C(C)C)CC4)c(OC)c1`, the inhibition is -5.78%.

As for `COc1cc(-c2noc(CSc3nc(-c4ccccc4)cc(=O)[nH]3)n2)cc(OC)c1OC`, the inhibition was -2.74%.

Regarding `Cc1cccc(C(=O)NCC(c2ccc3c(c2)OCO3)N2CCN(c3ccccc3F)CC2)c1` (configuration not stated), the inhibition is 20.6%.

For `Cc1ccc(-n2nc(C)c3c(C)cc(=O)n(CC(=O)Nc4ccc(Br)cc4F)c32)cc1`, the inhibition is 5.82%.

Consider `COc1ccc(S(=O)(=O)c2c(Nc3ccc(C)cc3)sc(C(=O)c3ccc(C)cc3)c2N)cc1`, for which the inhibition came out at 0.382%.

With `Cn1c(CCN2CCCCC2)nc2cc(NS(=O)(=O)c3ccc(F)cc3)ccc21`, the inhibition was active: 32%.

`COc1ccc(-c2ccc(CNc3ccc4[nH]c(=O)[nH]c4c3)o2)cc1Cl`: the inhibition is -14.4%.

As for `COc1cc(NC(=O)c2cc(-c3ccco3)on2)cc(OC)c1OC`, the inhibition was active: 33.1%.

Take `Cn1cnnc1SCC(=O)Nc1cc(C(=O)O)cc(C(=O)O)c1`: the inhibition turned out to be 0.915%.

For `Cc1nn(CC(=O)NC2CCCCC2)c(=O)c2cc3cc(F)ccc3n12`, the inhibition was -15.2%.

For `COC(=O)CSc1nnc(-c2cccc(O)c2)o1`, the inhibition is -2.36%.

As for `COC(=O)Cn1c(SCCOc2ccccc2Cl)nc2ccccc21`, the inhibition worked out at 5.79%.

Regarding `COc1ccc(C(C)=O)cc1CSc1nc(NCc2ccc(Cl)cc2)c2ccccc2n1`, the inhibition is -4.71%.

For the compound `CCOC(=O)c1cc(-c2ccc(C)cc2)n(CC(=O)Nc2cc(C)ccc2C)c1C`, the inhibition was -1.04%.

With `CC1=C(C(=O)Nc2ccc(C)cc2C)C(c2cc(Br)ccc2F)n2ncc(C(=O)Nc3ccc(C)cc3)c2N1` (configuration not stated), the inhibition worked out at 1.97%.

Consider `COc1ccc(-c2cc(C(F)(F)F)n3nc(C(=O)Nc4cccc(Cl)c4Cl)cc3n2)cc1OC`, for which the inhibition was found to be 8.08%.

As for `CC(C)CN(CC(C)C)c1nnc(NC(=O)Nc2cccc(C(F)(F)F)c2)s1`, the inhibition was -9.99%.

`COc1ccc(OCC(=O)Nc2ccc3c(c2)N(C)C(=O)c2ccccc2S3)cc1`: the inhibition was -1.31%.

As for `COc1ccc(-c2cc(C(=O)Nc3c(C(=O)c4ccc(C)c(F)c4)oc4ccccc34)no2)cc1`, the inhibition turned out to be 9.72%.

Regarding `CCOc1ccc(CNC(=O)c2ccc(Sc3ccc(C)cc3)c(N)c2)cc1OC`, the inhibition stood at 6.69%.

Turning to `CCn1c(=O)c2cc(C(=O)NCCc3ccc(OC)c(OC)c3)sc2c2ccccc21`, the inhibition came to 11.3%.

`Cc1ccc2nc(Cl)c3cc(C(=O)N4CCCC(C)C4)sc3c2c1` (configuration not stated): the inhibition was -15.6%.

Regarding `CCOc1ccc(N(CC(=O)Nc2cc(C)cc(C)c2)S(C)(=O)=O)cc1`, the inhibition was active: 40.8%.

As for `Cc1oc(-c2ccccc2)nc1Cn1c(=O)cc(-c2ccccc2)c2c(C)nn(C)c21`, the inhibition stood at 1.7%.

As for `O=C(Cn1cnc2c(nnn2Cc2ccc(F)cc2)c1=O)Nc1cccc(F)c1`, the inhibition is active: 37%.

For `Cc1ccc(NC(=O)c2cnc(SCC(=O)N3CCCc4ccccc43)n(C)c2=O)cc1C`, the inhibition was -2.23%.

As to `CCN(C(=O)Cn1cnc2c1c(=O)n(C)c(=O)n2C)c1ccccc1C`, the inhibition was -3.47%.

`CC1CCN(CCCNC(=O)c2n[nH]c(=O)c3ccccc23)CC1`: the inhibition was active: 41.1%.

With `Cn1c(=O)c2c(-c3ccccc3)n3c(c2n(C)c1=O)C(c1cccc([N+](=O)[O-])c1)Nc1ccccc1-3` (configuration not stated), the inhibition worked out at 20.1%.

Regarding `COc1ccc(-c2cc(C(F)(F)F)n3nc(C(=O)Nc4ccc(Cl)cc4C(F)(F)F)cc3n2)cc1OC`, the inhibition is 7.59%.

As to `Cc1cccc(C)c1NC(=O)Cn1c(=O)n(CCC(=O)NCc2ccc3c(c2)OCO3)c(=O)c2sccc21`, the inhibition is -2.31%.

In the case of `C=CCn1c(-c2ccc(OC)cc2)csc1=Nc1c(C)n(C)n(-c2ccccc2)c1=O`, the inhibition was active: 53.6%.

For `COc1ccc(C(=O)N2CCN(CCc3ccccn3)CC2)cc1`, the inhibition is -13.1%.

Take `Cc1ccc(NC(=O)C2CCCN(c3nc4ccccc4s3)C2)c(C)c1` (configuration not stated): the inhibition is -20.3%.

For `Cc1cccc(C)c1OCC(=O)N/N=C/c1cc2c(cc1[N+](=O)[O-])OCO2`, the inhibition is active: 30%.

Turning to `O=C(Nc1nnc2n1CCS2)c1cc(C(F)(F)F)cc(C(F)(F)F)c1`, the inhibition worked out at 9.2%.

Take `CCOc1ccc(N(C)S(=O)(=O)c2cc(-c3cnc(C)o3)ccc2OC)cc1`: the inhibition was -2.94%.

With `COc1ccc(/C=C/C(=O)Nc2cccc(F)c2)cc1`, the inhibition was -19.1%.

For the compound `CN(C)S(=O)(=O)c1ccc2c(c1)N(CC(=O)N1CCC(C(N)=O)CC1)CCS2`, the inhibition is -6.17%.

As for `Cc1ccc(C)c(NC(=O)Cn2cc(S(=O)(=O)c3ccc(F)cc3)c(=O)c3cc(F)ccc32)c1`, the inhibition is -17.8%.

As for `CCc1ccc(NC(=O)c2sc3nc(C)cc(C)c3c2NC(=O)c2ccccc2)cc1`, the inhibition came out at 2.57%.

Take `COc1cccc(CNC(=O)Nc2ccc3c(c2)N(C)C(=O)c2ccccc2S3)c1`: the inhibition is -5.54%.

As for `Cc1ccc(-c2nn3c(C)nnc3c3ccccc23)cc1S(=O)(=O)NC(C)(C)CO`, the inhibition was -2.01%.

Turning to `COc1ccc(OC)c(-c2cc(C(=O)NCc3ccc(Cl)cc3)no2)c1`, the inhibition is active: 62%.

In the case of `Cc1ccccc1NC(=O)C1CCN(S(=O)(=O)c2cccc3nonc23)CC1`, the inhibition stood at 17.3%.

For the compound `CCCSc1nnc2n(C)c(=O)c3c4c(sc3n12)CCC4`, the inhibition is active: 40.1%.

Consider `Cc1ccc(NC(=O)c2c(C)oc3ncnc(N4CCCCC4)c23)c(C)c1`, for which the inhibition was 4.74%.

In the case of `Brc1ccccc1OCCCN1CCCCCC1`, the inhibition is active: 46.2%.

For `CC(Oc1ccccc1F)C(=O)NCC1(N2CCOCC2)CCCCC1` (configuration not stated), the inhibition is -13.1%.

As for `Cc1cc(C)cc(NC(=O)c2cc(S(=O)(=O)N3CCCCC3)c[nH]2)c1`, the inhibition was -0.42%.

Turning to `CC1CCCN(c2ncnc3c2nnn3C)C1` (configuration not stated), the inhibition came to 8.57%.

In the case of `CCCOC(=O)c1cccc(Nc2nc(C(=O)OCC)nc3ccccc23)c1`, the inhibition was -6.97%.

Regarding `O=C(Nc1ccc(C(F)(F)F)cc1)C1(c2cccs2)CCOCC1`, the inhibition worked out at 9.36%.

For the compound `CCC1CN(C(=O)N2CCC(C(=O)NCc3ccccc3F)CC2)c2ccccc2O1` (configuration not stated), the inhibition was -10.4%.

Consider `CCOc1ccc(NC(=O)c2cc(S(=O)(=O)N3CCC(C)CC3)cn2C)cc1`, for which the inhibition came out at 4.45%.

Turning to `CC1=C(C(=O)Nc2ccc(F)cc2)C(c2ccc(N(C)C)cc2)NC(=O)N1` (configuration not stated), the inhibition was -4.5%.

Regarding `CCOC(=O)C1CCN(C(=O)CN(c2ccc3c(c2)OCO3)S(C)(=O)=O)CC1`, the inhibition was active: 45.3%.

For the compound `CCOc1ccc(CCNC(=O)Cn2ccc3cc(S(=O)(=O)N4CCCCCC4)ccc32)cc1`, the inhibition is -3.79%.

Regarding `CCC1CN(C(=O)C2CCN(S(=O)(=O)c3c(C)noc3/C=C/c3ccc(C)cc3)CC2)c2cc(C)ccc2O1` (configuration not stated), the inhibition is 20.7%.

Consider `Cc1cc(=O)oc2cc(OCC(O)CN3CCN(c4ccccc4)CC3)ccc12` (configuration not stated), for which the inhibition is active: 71.9%.

As for `COc1ccc(NC(=O)C(=O)c2cc(C)n(-c3ccc(C)cc3)c2C)cc1Cl`, the inhibition was found to be 19.2%.

As for `O=C(CCc1ccc(O)c(O)c1)N/N=C/c1ccc2c(c1)OCO2`, the inhibition was active: 42.3%.

As to `CCOc1ccccc1NC(=O)C1CCN(S(=O)(=O)c2cccc3nonc23)CC1`, the inhibition was -25%.

Regarding `Cc1cccc(N2CCN(C(=O)C3CCCN(C(=O)c4cc5sccc5n4C)C3)CC2)c1C` (configuration not stated), the inhibition amounted to 4.07%.

`O=C(Nc1cc(-c2ccc(F)c(F)c2)no1)c1ccccc1F`: the inhibition is 12.6%.

As for `COc1ccc(N2CCN(c3ncnc4onc(C)c34)CC2)cc1`, the inhibition is -9%.

With `O=C(C1CCC(CNS(=O)(=O)c2cccs2)CC1)N1CCN(c2ccc(Cl)cc2)CC1` (configuration not stated), the inhibition was -4.74%.

Take `COc1ccc(CCNC(=O)Cn2c(=O)nc(-c3ccccc3F)c3cc(Cl)ccc32)cc1OC`: the inhibition was found to be 5.4%.

On to `COC(=O)c1ccccc1NC(=O)CN(c1ccc(Cl)cc1)S(=O)(=O)c1ccc(OC)cc1`, for which the inhibition is -16.9%.

For `Cc1ccc2[nH]c(CSc3nnc(C)s3)cc(=O)c2c1`, the inhibition is 2.52%.

Take `COc1ccc(NC(=O)CSc2nnc(-c3nonc3NC(C)=O)n2C)cc1Cl`: the inhibition is -13.9%.

On to `Cc1ccc(-n2ccnc(NCCc3ccccc3)c2=O)cc1C`, for which the inhibition was 15.9%.

As to `O=C(CN1CCCCCC1)Nc1ccc(Br)cn1`, the inhibition is active: 41.3%.

As for `O=c1cc2nc(-c3ccccc3F)nc(SCc3ccc(Br)cc3)n2[nH]1`, the inhibition was -21.7%.

In the case of `CCOC(=O)c1c(C)[nH]c(C)c1S(=O)(=O)N1CCCC(C(=O)Nc2ccc(OC)c(OC)c2)C1` (configuration not stated), the inhibition is -10.7%.

As for `Cc1ccccc1-n1c2nc(=O)[nH]c(=O)c-2cc2c(Cl)cccc21`, the inhibition was 1.38%.

On to `CC(C)c1ccc(NC(=O)c2cc(S(=O)(=O)NC3CCCCC3)ccc2F)cc1`, for which the inhibition came out at 5.45%.

On to `Cc1c(Cl)cccc1NC(=O)CCn1cnnn1`, for which the inhibition is -4.49%.

With `CCN(CC)CCCNC(=O)C(C)n1nc(C)n2c(cc3occc32)c1=O` (configuration not stated), the inhibition stood at 8%.

On to `COCCCN1C(=O)c2[nH]nc(-c3ccccc3O)c2C1c1ccc(OC)cc1` (configuration not stated), for which the inhibition came to 12.2%.

Consider `CCOc1ccc2nc(N3CCN(C(=O)C(C)C)CC3)sc2c1`, for which the inhibition turned out to be 22.3%.

For `COc1ccc2oc(=O)cc(CN3CCN(C(=O)c4ccccc4Br)CC3)c2c1`, the inhibition worked out at 2.29%.

As to `CC1CCN(c2nn3c(=O)c(C(=O)NCCc4ccc(Cl)cc4)cnc3s2)CC1`, the inhibition was -3.76%.

In the case of `Cc1c(C(=O)N2CCCC2)sc(NC(=O)c2ccc(Cl)cc2)c1C#N`, the inhibition was active: 91.2%.

On to `Cn1nnnc1SCCCNCc1ccc(-c2cccc(Cl)c2)o1`, for which the inhibition is -24.5%.

For `O=C(OCc1ccco1)c1ccc2c(c1)N(Cc1ccc([N+](=O)[O-])cc1)C(=O)c1ccccc1S2`, the inhibition is -16.6%.

As to `CCOC(=O)c1c(NC(=O)c2ccccc2C)sc2c1CCCC2`, the inhibition is -11.1%.

For `Cc1nc(-n2nc(C)c(CCC(C)C)c2C)sc1C(=O)Nc1cccc(Cl)c1C`, the inhibition worked out at 15.5%.

With `O=C(CN1C(=O)COc2ccc(S(=O)(=O)N3CCCC3)cc21)NCCc1ccc(Cl)cc1`, the inhibition is -20.1%.

Turning to `Oc1ccccc1-c1nc(/C=C/c2ccccc2)nn1-c1ccccc1`, the inhibition was -5.57%.
